# The other results are listed elsewhere or left out.
# System: PF3D7_0420300 AP2 domain 1 (GST-tagged)
# Test: gcPBM binding intensity (ln(normalized median fluorescence intensity)); higher = stronger DNA binding
# Summary of the method: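 Alexa488 anti-GST antibody, scanned at 488 nm, detected GST-tagged P. falciparum DNA-binding domains that had been expressed in E. coli and incubated for 1 h on an Agilent 4 × 180k array. The array carried primer-extended double-stranded 36-bp intergenic genomic probes and negative controls. Binding intensity is the highest Masliner-normalised natural-log median intensity across replicate spots of either orientation of each probe.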
row,Sequence,gcPBM binding intensity (ln)
1,AGCATTTTTCATTTTGCACACATGTTTTATGTGTAT [CACACA_site3454],9.65
2,TGTTTATTTTTAAAAAGTACATATATAAAAAATATC [XGTACX_site4902],8.87
3,ATAATTTGGAAACACACACACACACCCACATATATA [CACACA_site2286],10.3
4,TTAAATGAAAAATGGGGTACATATATACAAATATAT [XGTACX_site5931],9.31
5,AAAAAAAAATACTACTGTACTTTTTTTGGACATCTA [XGTACX_site1096],8.97
6,TGATTATACGCACGCGCACACACAACCAAAAAAAAA [CACACA_site3537],9.57
7,AAAAAAGGAAAAGATACACACCGTAAATTAAAATTT [CACACA_site5908],9.78
8,GAAGGAATATACAATTGTACTTGGCAAAAAAAAAAA [XGTACX_site1884],9.08
9,ATATATTTATATATTACACACAATATTGTACAGATA [CACACA_site8215],9.58
10,AAATACTTGTCATATTGTACATGTTTGTGATATATA [XGTACX_site3185],9.31
11,GTTAAGAATATATAATGTACTTATTTTAATATAGTA [XGTACX_site6088],9.06
12,AATAATCTATATTGTACACACAAAATGGGAAAAAAA [CACACA_site6969],9.74
13,AATTAGATTTACTGAAGTACTTAATTTATTTTATTA [XGTACX_site3407],9.23
14,AGGTACTTTTTTAAAACACACATATAACATATACAC [CACACA_site6629],9.51
15,ACCCCCAATACGGAAACACACAAGTTATTTTATCAT [CACACA_site8874],9.91
16,TAAAATATATATATGTGTACATAACATATAATTTTT [XGTACX_site1725],9.13
17,TTATTTAGTATATTATGTACATACAATGCCTGGGAA [XGTACX_site4578],9.21
18,AGTATAAAAATATATTTACACACTATATATATCGAA [CACACA_site8494],9.43
19,ATATGTTACAGACACACACACACATAAAAAAACAAA [CACACA_site3248],10.1
20,TATTGTTGTTCATGTACACACTATAATAAAAGCAAT [CACACA_site6148],9.48
21,TTTTCATATTATAGTGCACACAAAAATATATATATG [CACACA_site8929],9.32
22,TCTTTTAAACAGTACACACACACATCTATATTTATA [CACACA_site6559],10
23,CTCTGTTGTCTTAGTTGTACAATAGAAAAAAATAAT [XGTACX_site7043],9.02

row,Sequence,gcPBM binding intensity (ln)
1,ATATATATATATATATGTACATATTGTATTAATTAT [XGTACX_site1919],9.25
2,TGATTGAGTAAAATGGGTACATATACACTATTACAT [XGTACX_site5232],9.19
3,TACAGGAATATTTTTACACACTAAAAATTATAAAAT [CACACA_site1649],9.39
4,TTTTTTACTTTTGAGACATTTCATATTTTTATTCAC [GTGCAC_negctrl_site730],9.19
5,AAAGGTTCACATTATATAGTTATGTAATATATATGT [CACACA_negctrl_site542],9.21
6,ATATTGTATTTATGTACACACATTTTTGGAATATGA [CACACA_site4861],9.54
7,TTTTTTCTCTGTGGCTGTACTTTGAAGATATTTTAT [XGTACX_site8243],9.52
8,TAGATATATAGACACACACACATTAATACCTATATT [CACACA_site7605],10.1
9,TGTCATTTAATTTTTTGTACGAAAAAAACATATAAA [XGTACX_site4952],8.88
10,GTATATATATATGTATATATTTTATTTTATTTTTAT [CACACA_negctrl_site1439],9.3
11,TATATATATAGACACACACACACATATATATATATA [CACACA_site9366],10
12,AGTTGTTTTAATAATGCATGTTATTTTATTTTAATA [TGCATGCA_site168],9.46
13,GTACATAGATTGTACATACACACCTATATAAATATC [CACACA_site3225],9.42
14,AATATATGGTTCCATGATATTAAATTCAATTTAATG [CACACA_negctrl_site605],9.02
15,TTTTTTTTGTTCTATACAATTATAAAAATAAAATAT [XGTACX_negctrl_site53],8.66
16,GCTTATATAAAAAGTTGTACAACCGAATCTTTTACA [XGTACX_site2119],9.2
17,TAATATCATTTATGTAGTACTATAACAAGAACTATA [XGTACX_site3618],9.03
18,AAAAAAAAAAAGCACACACACATATGAGTATATATA [CACACA_site4683],10
19,AATGTAAAAGTAAACACACACATATATAAATACATA [CACACA_site5386],9.95
20,TACACAAGCAGACACACACACATATATATATATATA [CACACA_site1270],9.72
21,ATTCTTATTTAAAGGTGTACTCTTAAACAGATTTTA [XGTACX_site3526],8.98
22,ATTTTAATATAAAATACACACTACTATTATAAATAT [CACACA_site4917],9.42
23,GTACACATATAGTAATAATTTTATTATATTTTTTTG [CACACA_negctrl_site843],9.28

row,Sequence,gcPBM binding intensity (ln)
1,GGTCTTCTTAATATACTGCACTGTATACGTATATAA,9.49
2,AGATTTAAATTTATATGTACATAATATGGGCGTATA [XGTACX_site6631],9.27
3,TTCATAAAATGATATTGTACAAATAAATAATAGTAT [XGTACX_site819],9.34
4,TGTAGATTTTGTAACACACACATATATATACATATA [CACACA_site2405],9.69
5,CTTATTATTATATGGGTGCTCATATTTTTCTTTTTT [GTGCAC_site9723],9.4
6,ACAAACATTAGGGAAGCATGCAATATTTTTTTACAT [TGCATGCA_site372],9.28
7,ATTATATACATATATATACACACGTAGTTTCTATTT [CACACA_site8697],9.38
8,TACTTTTTATTTTCTTGTACTTAATTGTCCAGATTT [XGTACX_site4334],9.42
9,ATATATATATATAAATGTACATTTTTCAATAGTTTT [XGTACX_site7449],9.39
10,TATAAATAAATAGATACACACATATATATAAATACA [CACACA_site155],9.74
11,TCTATATCTTTCAACACACAAATTTTTTTTTCCATC [CACACA_site4238],9.37
12,AAAAAAAAAAAAAAAGTGCACAGTCGTTTTAAAAAA [GTGCAC_site9848],9.14
13,AAATCATTTAAGAACACACAAATATTTCCATTAAAT [CACACA_site6808],9.42
14,ATTAACTATCATAACACACACAGTAGACATATTTTT [CACACA_site1822],9.85
15,CTTTTCTCCCTCCATAGTACAATTATAAAAATATAT [XGTACX_site3090],9.28
16,ATGCAAAGTTTATAAAGTACATAAGTCAAAATAAAA [XGTACX_site1441],9.35
17,AAGATAATATTTTCTTGTACGCATGCACATACAAAT [XGTACX_site7181],9.09
18,CTCAATGTTTGCGATACATGCAAAAATTTTTAGAAT [TGCATGCA_site165],8.96
19,TACATTTCATTGTAATCATAAAAAATAAAGAAAAAA [XGTACX_negctrl_site542],8.93
20,TAGAAGCATGGACACACACACATACATACCCATACA [CACACA_site4916],10
21,TTATTTTTCCGGAATAGTACATAGACGCAGATATAA [XGTACX_site6356],9.27
22,AAGAGAAAAATATATACACACACATAAATATATACA [CACACA_site8573],9.96
23,AAGGGGTAAAGAAAAACACACAAAAAATAAAAATAT [CACACA_site361],9.65

row,Sequence,gcPBM binding intensity (ln)
1,GATGAAAATAGAAATACACACTAAAAAATAAAATTA [CACACA_site4764],9.42
2,GAAATAATTCGATGTGCATGTAACGTTTCCCCAAAG [TGCATGCA_site122],9.32
3,TGCATACTTTTGTAAGTGCATAAAATCGTACCATGC,9.07
4,AATTAAAAAAAATACACACACACATACACATATATA [CACACA_site3298],10.2
5,CCAAAAAAAAAAAAAAGTACATAAAAACAAGAGAAT [XGTACX_site3037],9.39
6,CGTATTTATATAATTACACACCATATTATAATTATT [CACACA_site3760],9.49
7,GAAAGGATATATATATATATATATATAATACATTTC [GTGCAC_negctrl_site677],9.09
8,TATATATACATACATACACACATATATATATATATT [CACACA_site4110],9.59
9,ACATATAATATATAATGTACAAAATTGTTAACAATA [XGTACX_site3798],9.31
10,TACAGATACAGATACACACACACACCGAAATAAATA [CACACA_site4865],10.3
11,CTTTAAGTTATATGAAGTACAATTTAAAAAAATGAA [XGTACX_site358],8.91
12,AAAATAAAAAGAAAAAGAAAAAAGGGGGGGTAGGGG [CACACA_negctrl_site1048],10.2
13,TAAATTCCTACATACGCATGTACATTAAAATTTTAA [TGCATGCA_site215],9.13
14,ATACATTCAATGAAATGTACGTTTATTTACAGAAGA [XGTACX_site2999],8.9
15,AAATAAAAAACAGTGGCACACATTATGTATCCACCT [CACACA_site3756],9.32
16,AAAAAAAAAATATACACACACATATAAATATAAATA [CACACA_site7574],10
17,TTAAAGTAGAGAAAATGTACATTTTATTAACACAAT [XGTACX_site6369],9.28
18,TACTATTATAAATATGTGCACTTCAATAATATACTA,9.23
19,CTTAGGTTAAAAGTGTGTACATAAAAACATATATAA [XGTACX_site2213],9.55
20,ATAAGAAAAAGACACACACACAAAAAAAAAAAAAAA [CACACA_site2828],9.68
